Measurements: patent US20220125947A1

target: TCR Vδ2 (TRDV2) on γδ T cells in PBMCs (human), A0JD36; assay: cell-based or functional assay
Sequence (A0JD36 20-115, stated change not applied): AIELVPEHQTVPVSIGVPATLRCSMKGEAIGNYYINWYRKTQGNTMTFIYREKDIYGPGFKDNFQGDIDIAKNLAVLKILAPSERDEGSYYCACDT

CD25+ (Vg9+ cells), flow staining [%] | CD71+ (Vg9+ cells), flow staining [%] | Granzyme B (Luminex, supernatant) | IFNγ (Luminex, supernatant) | IL6 (Luminex, supernatant) | TNFα (Luminex, supernatant) | Vg9 T cell %, flow staining [%] | Binder
28.5 | 83.6 | 2640 | 1460 | 819 | 7460 | 2.7 | VG9B462 (antibody, human IgG1, lambda) heavy: QVQLQQSGPGLVKPSETLSLTCTVSGGSISNYYWSWIRQPAGKGLGWIGRIYSSGITNYNPSLKSRVTMSVDTSKNQLSLKLSSVTAADTAVYYCAGIVGVKGAFAIWGQGTMVTVSS[human IgG1 constant region omitted here] light: QSVLTQPASVSGSPGQSITISCTGTSSDVGGYNYVSWYQQHPGKAPKLMIYEVSNRPSGVSNRFSGSKSGNTASLTISGLQAEDEADYYCSSYTSTSVVFGGGTKLTVLGQPKAAPSVTLFPPSSEELQANKATLVCLISDFYPGAVTVAWKADSSPVKAGVETTTPSKQSNNKYAASSYLSLTPEQWKSHRSYSCQVTHEGSTVEKTVAPTECS
34.4 | 85.3 | 3170 | 1350 | 748 | 7900 | 2.7 | VG9B461 (antibody, human IgG1, lambda) heavy: QVTLKESGPGLVKPSETLSLTCTVSGGSISNYYWSWIRQPAGKGLGWIGRIYSSGITNYNPSLKSRVTMSVDTSKNQLSLKLSSVTAADTAVYYCAGIVGVKGAFAIWGQGTMVTVSS[human IgG1 constant region omitted here] light: QPVLTQSSSVSGSPGQSITISCTGTSSDVGGYNYVSWYQQHPGKAPKLMIYEVSNRPSGVSNRFSGSKSGNTASLTISGLQAEDEADYYCSSYTSTSVVFGGGTKVTVLGQPKAAPSVTLFPPSSEELQANKATLVCLISDFYPGAVTVAWKADSSPVKAGVETTTPSKQSNNKYAASSYLSLTPEQWKSHRSYSCQVTHEGSTVEKTVAPTECS
27.6 | 84.5 | 2230 | 1030 | 384 | 4320 | 3.1 | VG9B458 (antibody, human IgG1, lambda) heavy: QVQLVQSGPGLVKPSETLSLTCTVSGGSISNYYWSWIRQPAGKGLGWIGRIYSSGITNYNPSLKSRVTMSVDTSKNQLSLKLSSVTAADTAVYYCAGIVGVKGAFAIWGQGTMVTVSS[human IgG1 constant region omitted here] light: QSVLTQPASVSGSPGQSITISCTGTSSDVGGYNYVSWYQQHPGKAPKLMIYEVSNRPSGVSNRFSGSKSGNTASLTISGLQAEDEADYYCSSYTSTSVVFGGGTKLTVLGQPKAAPSVTLFPPSSEELQANKATLVCLISDFYPGAVTVAWKADSSPVKAGVETTTPSKQSNNKYAASSYLSLTPEQWKSHRSYSCQVTHEGSTVEKTVAPTECS
